Read counts are not given, so values of variants with three or more changes are uncertain.
B1: LINE1-mini (parent)
chain: GGCAGAGCUCAACACAGCGUGGCAAAGUGGCUGUGGCUAGACUGCC

Variants of: B1
Test: self-cleavage, relative activity (ratio to wild type); higher = more cleavage; in vitro, sequencing; the parent is a self-cleaving ribozyme
For A16C A25C A26C G30C G33A C37G, the self-cleavage was 0.03.
For C15G U34A C42A, the self-cleavage was 0.02.
C15G U34A C42U showed a self-cleavage of 0.04.
Variant A16C G29U U34C has a self-cleavage of 0.03.
In the case of A16C G27U C45U, the self-cleavage is reported as 0.06.
In the case of A16C A41U U43G, the self-cleavage is reported as 0.06.
Work on A16C G27A U32A yielded a self-cleavage of 0.1.
With C15G U28C G40U C42G G44A the self-cleavage was 0.01.
With C15U G17U G22C A25G G27A C42A the self-cleavage was 0.03.
Variant A16C G27U U34A C42U has a self-cleavage of 0.02.
Work on C15U U20C A24G G27A G33U yielded a self-cleavage of 0.15.
With C15G U20C G40U C45G the self-cleavage was 0.01.
With C15G U28A G33C the self-cleavage was 0.48.
With A16C C18U G30U the self-cleavage was 0.08.
C15U G17C G19A G22U G36C showed a self-cleavage of 0.
With C15U C31U A41G G44U the self-cleavage was 0.01.
For C15G U20C C37U U43C, the self-cleavage was 0.06.
In the case of C15U C18G A25C G29A A41U, the self-cleavage is reported as 0.04.
C15U G19U U43A showed a self-cleavage of 0.02.
Work on C15U C18G G21A G30A C37U yielded a self-cleavage of 0.08.
With A16C G21A U34C the self-cleavage was 0.03.
Variant C15U G17A G19A has a self-cleavage of 0.63.
Variant C15G U34C C46A has a self-cleavage of 0.01.
Work on C15U A25C U28C C31A G36C A39G C45A yielded a self-cleavage of 0.12.
A16C G17C C31A showed a self-cleavage of 0.
C15U G21C A24U C31G gave a self-cleavage of 0.09.
C15U G19U G22C gave a self-cleavage of 1.21.
Variant C15U A16G C18G has a self-cleavage of 0.02.
With A16C G33C G35C G40U the self-cleavage was 0.12.
A16C G17U G19A G30A showed a self-cleavage of 0.14.
Variant C15U A16C G33A G36A has a self-cleavage of 0.35.
Variant A16C C18G G27C U34A has a self-cleavage of 0.26.
Variant A16C G21C A25C A26C G30A C45G has a self-cleavage of 0.03.
Variant C15U C31U G44U has a self-cleavage of 0.06.
For C15U C18U G22U G35U, the self-cleavage was 0.38.
Variant C15U G36U C37U A41U G44A has a self-cleavage of 0.03.
With C15U A26U U34A G40A the self-cleavage was 0.08.
With C15U U38G G40U the self-cleavage was 0.13.
For C15U U20C U32C G35U C42G, the self-cleavage was 0.18.
With A16C A25U G27A G30U G33C G44U the self-cleavage was 0.05.
With C15U U38A G40C the self-cleavage was 0.16.
Work on C15U A16U G21U G30U yielded a self-cleavage of 0.11.
In the case of C15G G29A C31A U38G C46G, the self-cleavage is reported as 0.01.
For C15U G22A G29C C31G C42A, the self-cleavage was 0.
Variant A16C G27A U32G C42U has a self-cleavage of 0.03.
Variant C15G G22U G29U has a self-cleavage of 0.21.
In the case of C15G U34A G35A, the self-cleavage is reported as 0.04.
C15U U20A A26C showed a self-cleavage of 1.81.
For A16C C18A G33A A41G, the self-cleavage was 0.07.
Work on C15U C23G A24G yielded a self-cleavage of 0.21.
A16C A26U G27U U28G U34A G36C showed a self-cleavage of 0.01.
Work on C15U C18U G21A yielded a self-cleavage of 0.27.
C15U A24U U38G G44C showed a self-cleavage of 0.06.
In the case of C15U A16C C23U A41U, the self-cleavage is reported as 0.07.
C15U C37G C45U showed a self-cleavage of 0.03.
With C15U G33C C37U the self-cleavage was 0.02.
For C15U G22A G27U U38A G44U, the self-cleavage was 0.52.
For C15G G30A U34C G35U C37U A39G C45U, the self-cleavage was 0.
Work on A16C G21A C31U yielded a self-cleavage of 0.05.
Work on C15U C18A G21A G27C C37A yielded a self-cleavage of 0.02.
Variant C15U A26C C45G has a self-cleavage of 0.14.
In the case of C15U C23A C31U U32A, the self-cleavage is reported as 0.18.
For A16C C23A U28A C37A, the self-cleavage was 0.01.
With C15U G21U A25G A26U the self-cleavage was 0.04.
For C15U G17A G30U C37U C42G, the self-cleavage was 0.06.
For C15U A25U G33C C37G C42A, the self-cleavage was 0.1.
A16C C18U U32G gave a self-cleavage of 0.65.
Work on C15U G17A U20G C37G yielded a self-cleavage of 0.03.
C15U G22A G29C U43G G44C showed a self-cleavage of 0.14.
With C15U G30U C31U the self-cleavage was 0.13.
Variant C15U G17C C23U has a self-cleavage of 0.05.
Variant C15U C18U G30A G35A has a self-cleavage of 0.06.
In the case of C15U A16C G17U, the self-cleavage is reported as 0.03.
For A16C A25C C31G, the self-cleavage was 0.
In the case of C15U G21U G40U C46A, the self-cleavage is reported as 0.1.
Work on C15G G36C C46U yielded a self-cleavage of 0.01.
Variant C15U A26G A39C has a self-cleavage of 0.16.
C15U C23G A24G G44U showed a self-cleavage of 0.05.
In the case of A16C A26G G27U C37G G44A, the self-cleavage is reported as 0.23.
With C15U G27A C31G G33A the self-cleavage was 0.1.
In the case of A16C G33U G35A, the self-cleavage is reported as 0.03.
For C15G G22U U32A, the self-cleavage was 0.01.
C15U U20G A24G U32A G35U gave a self-cleavage of 0.03.
Work on A16C C23U U32C G35C yielded a self-cleavage of 0.02.
A16C C37A U38C G40U gave a self-cleavage of 0.04.
Variant C15G U28C U32A has a self-cleavage of 0.02.
Work on C15U U20C C23A A24G G33U yielded a self-cleavage of 0.08.
A16C A24C A26U G33U showed a self-cleavage of 0.02.
Work on C15G G33A A41G yielded a self-cleavage of 0.02.
For A16C G22A C37G, the self-cleavage was 0.01.
For C15U G21U C37U U38A, the self-cleavage was 0.03.
A16C C42A C45U showed a self-cleavage of 0.15.
Work on A16C G21A U38C yielded a self-cleavage of 0.14.
With A16C G33U G36A the self-cleavage was 0.
With A16C G17C U32G G44A the self-cleavage was 0.06.
C15U A24U C46G gave a self-cleavage of 0.5.
Work on A16C G21C U28G yielded a self-cleavage of 0.3.
A16C G19U U34C U38A C46A gave a self-cleavage of 0.05.
For C15U G29A C46U, the self-cleavage was 1.23.
Work on C15U A16U G19U A24G C45G yielded a self-cleavage of 0.05.
With C15U A16U G30U C46G the self-cleavage was 0.06.
C15U A25G U32C gave a self-cleavage of 0.05.
Work on A16C G27C G29U yielded a self-cleavage of 1.5.
For C15U A16G G30U, the self-cleavage was 0.01.
Variant C15U U38C C45U has a self-cleavage of 0.7.
Variant C15U U34G G40U has a self-cleavage of 0.
For C15U A26U G33A G36A A39U C42U, the self-cleavage was 0.2.
C15U A24U A25C G35A G36C U38A gave a self-cleavage of 0.05.
C15G G27U G29C C42U showed a self-cleavage of 0.05.
For C15U C31G A39U, the self-cleavage was 0.05.
With A16C C31U G35C C45A the self-cleavage was 0.
In the case of A16C G22A G40U, the self-cleavage is reported as 0.06.
With C15U A24G G27U the self-cleavage was 0.04.
Variant C15U G22C C23A has a self-cleavage of 2.09.
C15U A25G A26U gave a self-cleavage of 0.04.
In the case of C15G G35A G40C A41U C46U, the self-cleavage is reported as 0.04.
Work on A16C C18G A24G yielded a self-cleavage of 0.15.
C15U G27C U28A C42A showed a self-cleavage of 1.96.
A16C C23U U34C showed a self-cleavage of 0.11.
In the case of C15G G27A C31U, the self-cleavage is reported as 0.03.
C15U A16G G19U C31U U38G showed a self-cleavage of 0.02.
For C15U A16C A41G, the self-cleavage was 0.02.
For C15U A25C G29C, the self-cleavage was 0.85.
In the case of C15U C18G G33A U34G A39C, the self-cleavage is reported as 0.
With C15G U20G C23A C31A the self-cleavage was 0.01.
For A16C G21C U43C, the self-cleavage was 0.01.
For A16C G29U G40U U43C, the self-cleavage was 0.
C15U U28A G44C showed a self-cleavage of 0.07.
C15U G30C U32A U34A G35U showed a self-cleavage of 0.04.
Variant A16C C31A A39U has a self-cleavage of 0.03.
Work on C15G U32C G44U yielded a self-cleavage of 0.01.
With C15U G27U A41U the self-cleavage was 0.08.
C15U C18U G30U A41U showed a self-cleavage of 0.
In the case of C15U G35U A41U, the self-cleavage is reported as 0.15.
For A16C G17A U32G A39U, the self-cleavage was 0.05.
C15U G21U A41U showed a self-cleavage of 0.72.
C15U G21U U43G showed a self-cleavage of 0.02.
Variant C15G G40A U43A has a self-cleavage of 0.
For A16C C37U C42U, the self-cleavage was 0.02.
Variant C15U G19U G29U A39G has a self-cleavage of 0.11.
For A16C G17U U34G, the self-cleavage was 0.04.
Variant C15U A16U G22A has a self-cleavage of 0.13.
With C15U C18U G27U G29C A41G the self-cleavage was 0.11.
C15U G21C G29A U43G showed a self-cleavage of 0.02.
Work on C15U A25G G29A U34C G36U yielded a self-cleavage of 0.04.
A16C G33C G35A gave a self-cleavage of 0.
With C15U C23G G35U the self-cleavage was 0.05.
With C15U G17U G33C C45G the self-cleavage was 0.02.
With A16C C23U G27U U38G the self-cleavage was 0.
C15U A39U G44U showed a self-cleavage of 0.41.
In the case of C15U U32A C42A, the self-cleavage is reported as 0.06.
Variant A16C A25U G33C C37U has a self-cleavage of 0.05.
In the case of A16C G19A C45U, the self-cleavage is reported as 0.16.
Work on C15U A26U C31U C37G G44A yielded a self-cleavage of 0.05.
A16C G17U C31G G36U showed a self-cleavage of 0.02.
For C15U A16U U28C G33A, the self-cleavage was 0.1.
Work on C15U A16C C37U yielded a self-cleavage of 0.07.
In the case of C15U U20C C46G, the self-cleavage is reported as 0.71.
C15U C31A G40U C42U G44U showed a self-cleavage of 0.01.
C15G G30U G35C showed a self-cleavage of 0.03.
For C15U G17U C42U, the self-cleavage was 0.12.
Work on C15U C31U G33U yielded a self-cleavage of 0.09.
For C15G U32C A41U, the self-cleavage was 0.02.
In the case of A16C C18G G22C A26C G35U, the self-cleavage is reported as 0.04.
Work on C15U G22A U28A yielded a self-cleavage of 1.06.
Work on C15U U20A G27A yielded a self-cleavage of 0.9.
Variant C15U C18U G19U C23A has a self-cleavage of 1.02.

— the RNAGym collection of RNA variant scans (doi:10.7554/elife.90254)
